Data reported in the supplement of paper PMC9174493.
Some of the results follow. Single values of this set are uncertain. Values with irradiation are relative to irradiated vehicle.

Key:
A549-Dual [1] = test: NF-kB reporter (SEAP) activity, viability-corrected, relative to vehicle (fold change vs vehicle); higher = more activation of STING-IRF / NF-kB immune response reporter
A549-Dual [2] = test: ISRE reporter (Lucia luciferase) activity, viability-corrected, relative to vehicle (fold change vs vehicle); higher = more activation of STING-IRF / NF-kB immune response reporter
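Wherever NF-kB reporter (SEAP) activity, viability-corrected, relative to vehicle is given: viability correction based on the alamar blue assay, with concentrations leaving 10% survival or less dropped.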

SMILES | NF-kB reporter (A549-Dual [1]; 0.1 µM, irradiation: 8 Gy/4 fr) | NF-kB reporter (A549-Dual [1]; 0.1 µM, irradiation: none) | NF-kB reporter (A549-Dual [1]; 0.3 µM, irradiation: 8 Gy/4 fr) | NF-kB reporter (A549-Dual [1]; 0.3 µM, irradiation: none) | NF-kB reporter (A549-Dual [1]; 1 µM, irradiation: 8 Gy/4 fr) | NF-kB reporter (A549-Dual [1]; 1 µM, irradiation: none) | NF-kB reporter (A549-Dual [1]; 3 µM, irradiation: 8 Gy/4 fr) | NF-kB reporter (A549-Dual [1]; 3 µM, irradiation: none) | NF-kB reporter (A549-Dual [1]; 10 µM, irradiation: 8 Gy/4 fr) | NF-kB reporter (A549-Dual [1]; 10 µM, irradiation: none) | ISRE reporter (A549-Dual [2]; 0.1 µM, irradiation: 8 Gy/4 fr) | ISRE reporter (A549-Dual [2]; 0.1 µM, irradiation: none) | ISRE reporter (A549-Dual [2]; 0.3 µM, irradiation: 8 Gy/4 fr) | ISRE reporter (A549-Dual [2]; 0.3 µM, irradiation: none) | ISRE reporter (A549-Dual [2]; 1 µM, irradiation: 8 Gy/4 fr) | ISRE reporter (A549-Dual [2]; 1 µM, irradiation: none) | ISRE reporter (A549-Dual [2]; 3 µM, irradiation: 8 Gy/4 fr) | ISRE reporter (A549-Dual [2]; 3 µM, irradiation: none) | ISRE reporter (A549-Dual [2]; 10 µM, irradiation: 8 Gy/4 fr) | ISRE reporter (A549-Dual [2]; 10 µM, irradiation: none)
O=C(O)CCCc1ccc(N(CCCl)CCCl)cc1 [Chloroambucil] | 1.31 | 1.23 | 1.09 | 1.44 | 1.09 | 1.64 | 1.19 | 1.45 | 1.03 | 1.19 | 1.09 | 1.18 | 1.14 | 1.24 | 1.13 | 1.32 | 1.2 | 1.13 | 1.08 | 1.86
CC(C)C12OC1C1OC13C1(C)CCC4=C(COC4=O)C1CC1OC13C2=O (stereo not given) [Triptonide] | 0.546 | 0.809 | 0.608 | 0.738 | 0.54 | 1.39 | 0.611 | 1.35 | 0.737 | 1.05 | 0.331 | 1.19 | 0.065 | 0.412 | 0.0681 | 0.343 | 0.0654 | 0.276 | 0.0575 | 0.373
CC1CCC2N(C1)CC1C3CC4C(CC(O)C5CC(O)CCC54C)C3CCC1C2(C)O (stereo not given) [Peimine] | 0.959 | 0.829 | 0.94 | 0.776 | 1.06 | 0.828 | 1.18 | 0.775 | 1.05 | 0.741 | 0.692 | 0.76 | 0.77 | 0.617 | 0.775 | 0.802 | 1.17 | 0.838 | 1.14 | 0.749
CC12CCC3C(CC=C4CC(O)CCC43C)C1CCC2=O (stereo not given) [Dehydroepiandrosterone (DHEA)] | 0.913 | 0.66 | 0.99 | 0.656 | 1.02 | 0.745 | 0.584 | 0.836 | 0.629 | 1 | 0.903 | 0.972 | 0.783 | 0.896 | 0.961 | 0.943 | 0.742 | 0.856 | 0.744 | 0.787
NC(Cc1ccc(N(CCCl)CCCl)cc1)C(=O)O (stereo not given) [Melphalan] | 1.12 | 1.24 | 0.959 | 1.28 | 1.15 | 1.66 | 1.03 | 1.39 | 0.803 | 1.02 | 1.12 | 1.25 | 0.983 | 1.23 | 1.08 | 1.46 | 0.907 | 1.21 | 0.875 | 1.27
